{"source": "PubChem BioAssay AID686978", "about": "(National Center for Advancing Translational Sciences (NCATS), 2013)", "note": "“And” between values parts separate entries of the source, which are not always exact repeats. Identical values can stand only once. Hit rate of the full screen: of about 420,000 compounds, about 64,000 (15%) were called active. The inconclusive results got no clear call from the source; some entries with a clear call stand among them for comparison. The call rests on the fitted dose curve; in most records, active means well fitted inhibition curve with a large enough effect; inconclusive means small, poorly fitted or top-dose-only effect; inactive means flat fitted curve, though single readings scatter. No potency is given beside an inconclusive call; the fits are too rough. On the % scale 0 is the no-effect control and ±100 the full control effect; potency means the concentration at half of the fitted maximal effect; tags describe the fitted curve by direction and shape."}
{"experiment": "qHTS for Inhibitors of human tyrosyl-DNA phosphodiesterase 1 (TDP1): qHTS in cells in absence of CPT; further: nearly all actives have a fitted effect of over 55% in size", "details": "DT40 Tdp1-/- hTDP1 cells, no CPT, ATP luminescence, 48 h; activity change, negative = growth inhibition: at 46.2 µM (top of the series) unless noted", "procedure,_shortened": "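Seeded 400 DT40-hTDP1 cells/well (vehicle DMSO, no 20 nM CPT); pinned compounds; ≥48 hr at 37 °C; CellTiter-Glo luminescence as viability measure.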"}
{"smiles": "C[C@@H]1O[C@H](C2CC2)Cc2[nH]c(=S)[nH]c(=O)c21", "Potency": "inactive"}
{"smiles": "C=CCNC(=O)C(=O)Nc1ccc2c(c1)N(S(=O)(=O)c1cccs1)CCC2", "Potency": "active: 23.1 µM"}
{"smiles": "CC(C)c1nc(SCC(=O)NC2CCCC2)c2ccccc2n1", "Potency": "inconclusive [inhibitor, single point]"}
{"smiles": "O=C(NCC(=O)N1CCCCC1)c1ccc(Br)o1", "Potency": "inactive"}
{"smiles": "Cc1c(CCC(=O)N2CCC[C@H]2C(=O)O)c(=O)oc2c(C)c3oc4c(c3cc12)CCCC4", "Potency": "inconclusive [inhibitor, single point]"}
{"smiles": "Cc1ccc(NC(=O)CSc2nnc(N)s2)c(C)c1", "Potency": "inactive"}
{"smiles": "CC(/C=C/c1cccc([N+](=O)[O-])c1)=N/NC(=O)c1cccnc1", "Potency": "inconclusive [inhibitor, single point]"}
{"smiles": "NS(=O)(=O)c1cccc(NC(=O)COC(=O)CN2C(=O)c3ccccc3C2=O)c1", "Potency": "inactive"}
{"smiles": "O=C(CSc1nc2ccccc2[nH]1)NC1CCCc2ccccc21", "note": "(configuration not stated)", "activity change, negative = growth inhibition": "inconclusive: -32.8% [inhibitor]"}
{"smiles": "O=C(CSCc1ccccc1Br)N/N=C/c1ccccc1C(=O)O", "Potency": "inactive"}
{"smiles": "COCCNc1ncnc2c1c(-c1ccccc1)cn2-c1cccc(Cl)c1", "Potency": "inconclusive [inhibitor, single point]"}
{"smiles": "N=c1c(-c2nc3ccccc3[nH]2)cc(C(=O)c2cccs2)nn1-c1ccccc1", "Potency": "active: 23.1 µM"}
{"smiles": "CCc1cc2c(CN3CCN(CCO)CC3)cc(=O)oc2cc1O", "Potency": "inactive"}
{"smiles": "CC(=O)Nc1ccc(S(=O)(=O)NNC(=O)c2cc3c4ccccc4n(C)c3s2)cc1", "Potency": "active: 5.17 µM"}
{"smiles": "COc1cc(OC)c(C=NNC(=S)NC23CC4CC(CC(C4)C2)C3)c(OC)c1", "Potency": "active: 6.51 µM"}
{"smiles": "CCOC(=O)/C(=C\\c1ccc(OC)c(OC)c1)C(=O)c1cccnc1", "Potency": "inconclusive [inhibitor, single point]"}
{"smiles": "CCc1nc(N2CCC3(CC2)OCCO3)c2nnn(Cc3ccccc3)c2n1", "Potency": "inconclusive [inhibitor, full curve, poor fit]"}
{"smiles": "COc1ccc(NS(=O)(=O)c2cccc(C(=O)Nc3cccc(C(=O)O)c3)c2)cc1", "Potency": "inactive"}
{"smiles": "O=C(Oc1ccccc1)c1ccccc1OS(=O)(=O)c1ccccc1", "Potency": "inconclusive [inhibitor, partial curve]"}
{"smiles": "O=C(Nn1c(C2CCC2)nc2ccccc2c1=O)c1cccs1", "Potency": "inactive"}
{"smiles": "CCn1cc(CN2CCCC(C(=O)Nc3ccc(-c4cscn4)cc3)C2)cn1", "note": "(configuration not stated)", "Potency": "inactive"}
{"smiles": "CNC(=O)c1ccc(NC(=O)CCNC(=O)Nc2ccccc2)cc1", "Potency": "inactive"}
{"smiles": "CON(C)C(=O)C[C@@H]1C[C@H](OC(=O)c2ccc([N+](=O)[O-])cc2)CN1C(=O)OC(C)(C)C", "Potency": "inconclusive [inhibitor, single point]"}
{"smiles": "CCOC(=O)C1CCCN(C(=O)c2ccc(F)c(Cl)c2)CC1", "note": "(configuration not stated)", "Potency": "inactive"}
{"smiles": "Cc1cc(C(=O)CSc2nnc(Cc3ccccc3)o2)c(C)n1Cc1ccc2c(c1)OCO2", "Potency": "inconclusive [inhibitor, partial curve]"}
{"smiles": "NC[C@H]1O[C@@H](n2ccc(N)nc2=O)[C@H](O)[C@@H]1O", "Potency": "inconclusive [inhibitor, single point]"}
{"smiles": "CCC(C)NC(=O)CSc1nnc(-c2ccc(OC)c(OC)c2)c(-c2ccc(OC)c(OC)c2)n1", "note": "(configuration not stated)", "Potency": "inconclusive [inhibitor, single point]"}
{"smiles": "CC1=NC(=O)C(N=Nc2ccccc2C(=O)O)N1c1ccccc1", "note": "(configuration not stated)", "Potency": "active: 13 µM"}
{"smiles": "CC1(C)COCN1S(=O)(=O)c1ccc(C(=O)Nc2nnc(-c3ccc(Cl)s3)o2)cc1", "Potency": "active: 4.47 µM"}
{"smiles": "S=c1sc2c(N3CCOCC3)ncnc2n1-c1ccccc1", "Potency": "inconclusive [inhibitor, partial curve]"}
{"smiles": "COCCN(C(=O)CSc1nc2ccccc2c(=O)n1CCOC)c1c(N)n(Cc2ccccc2)c(=O)[nH]c1=O", "Potency": "inactive"}
{"smiles": "CCc1cc2c(N=Nc3c(O)[nH]c4ccccc34)ncnc2s1", "Potency": "active: 20.6 µM"}
{"smiles": "N#Cc1nc(Cl)c(Cl)c(NN)c1Cl", "Potency": "inactive"}
{"smiles": "Cc1ccc(NS(=O)(=O)c2ccc(C)c(NC(=S)NCCN3CCOCC3)c2)c(C)c1", "Potency": "inactive"}
{"smiles": "Cc1ccc(F)cc1NC(=O)N1CCN(C2c3ccccc3-c3ccccc32)CC1", "Potency": "inconclusive [inhibitor, partial curve, poor fit]"}
{"smiles": "CCCOC(=O)c1ccc(NC(=O)CN(C)Cc2cccs2)cc1", "Potency": "inconclusive [inhibitor, partial curve, poor fit]"}
{"smiles": "O=C1Nc2ccccc2C1(c1ccccc1)c1ccccc1", "Potency": "inconclusive [inhibitor, single point]"}
{"smiles": "Cc1cccc(CS(=O)(=O)c2ncc(Cl)c(C(=O)NCc3ccccc3)n2)c1", "Potency": "active: 1.3 µM and active: 2.59 µM"}
{"smiles": "COC(=O)CNC(=O)Cc1c(C)n(C(=O)c2ccc(Cl)cc2)c2ccc(OC)cc12", "Potency": "inactive"}
{"smiles": "O=Cc1ccc(OC2OCCOC2Oc2ccc(C=O)cc2)cc1", "note": "(configuration not stated)", "Potency": "inconclusive [inhibitor, single point]"}
{"smiles": "CN1CC=C2C(C#N)=C(N)C(C#N)(C#N)[C@H](c3ccoc3)[C@H]2C1", "Potency": "active: 20.6 µM"}
{"smiles": "Cc1ccccc1CN1CCCN(CC(=O)Nc2c(C)cccc2C)S1(=O)=O", "Potency": "inconclusive [inhibitor, single point]"}
{"smiles": "O=C(NCCc1ccccc1)c1cc(Sc2ccc(F)cc2F)nc2ccccc12", "Potency": "inconclusive [inhibitor, partial curve]"}
{"smiles": "COc1ccc(CCNC(=O)c2ccc([N+](=O)[O-])cc2Cl)cc1OC", "Potency": "inactive"}
{"smiles": "Nc1ccccc1SC1CC(=O)N(c2ccccc2Cl)C1=O", "note": "(configuration not stated)", "Potency": "inactive"}
{"smiles": "CC1Sc2ccc(S(=O)(=O)N3CCC(C(=O)NCCc4ccccc4)CC3)cc2NC1=O", "note": "(configuration not stated)", "Potency": "inconclusive [inhibitor, single point]"}
{"smiles": "COc1cccc(OCc2nc3ccccc3n2CCOc2cccc(C)c2)c1", "Potency": "inconclusive [inhibitor, single point]"}
{"smiles": "CC(C)Oc1ccc(C(=O)Nc2ccc(Cl)c(S(=O)(=O)Nc3ccc(Cl)cc3)c2)cc1", "Potency": "inconclusive [inhibitor, single point]"}
{"smiles": "O=c1oc2ccccc2c(Nc2ccc(Cl)cc2)c1[N+](=O)[O-]", "Potency": "active: 13 µM"}
{"smiles": "Fc1ccc(CNc2nc(-c3ccccc3)cc(C(F)(F)F)n2)cc1", "Potency": "inconclusive [inhibitor, single point]"}
{"smiles": "COc1ccc2c(c1)[C@H]1[C@H](CO2)[C@H](c2ccccc2)[C@]2(C)C(=O)N(Cc3ccc(C)cc3)CC(=O)N12", "Potency": "inconclusive [inhibitor, single point]"}
{"smiles": "COc1cc(C(=O)OC2CC[C@]3(C)C4CCC5[C@]6(O)CC(O)[C@]7(O)C(CN8CC(C)CCC8[C@]7(C)O)[C@]6(O)C[C@@]53O[C@]24O)cc(OC)c1OC", "note": "(some centres not stated)", "Potency": "inactive"}
{"smiles": "CCC(C(=O)Nc1ccc(C(C)=O)cc1)n1c(C)c2cnn(-c3ccccc3)c(=O)c2c1C", "note": "(configuration not stated)", "Potency": "inconclusive [inhibitor, single point]"}
{"smiles": "Cc1csc(=O)n1CCC(=O)N(C)Cc1c(F)cccc1Cl", "Potency": "active: 16.4 µM"}
{"smiles": "CCN(CC)c1ccc(NC(=O)CSc2ccsc2[N+](=O)[O-])c(C)c1", "Potency": "active: 18.4 µM"}
{"smiles": "CCOC(=O)c1ccc(Nc2ncnc3nc[nH]c23)cc1", "Potency": "inconclusive [inhibitor, single point]"}
{"smiles": "CC1CCC(C(C)C)C(OC(=O)Cn2c(-c3ccc(F)cc3)[n+](C)c3ccccc32)C1", "note": "(configuration not stated)", "Potency": "active: 2.31 µM"}
{"smiles": "COC(=O)c1cn(NC(=O)c2ccccc2[N+](=O)[O-])c(=O)c2ccccc12", "Potency": "inconclusive [inhibitor, single point]"}
{"smiles": "CCC(C)C(=O)Nc1ccc(OC)cc1OC", "note": "(configuration not stated)", "Potency": "inactive"}
{"smiles": "COc1ccccc1N1CCN(C(=O)c2ccc3nc[nH]c3c2)CC1", "Potency": "inactive"}
{"smiles": "COc1ccc(NS(=O)(=O)c2ccc3[nH]c4c(c3c2)CCCCCC4)cc1", "Potency": "inconclusive [inhibitor, single point]"}
{"smiles": "O=C(Cn1cnc2scc(-c3ccccc3)c2c1=O)NCc1ccco1", "Potency": "inconclusive [inhibitor, single point]"}
{"smiles": "COc1cccc(-c2ccc3c(N)c(C(=O)Nc4ccc(C)c(F)c4)sc3n2)c1", "Potency": "inconclusive [inhibitor, single point]"}
{"smiles": "O=C(c1ccc(Cl)cc1)c1cc(-c2ccccn2)c(N2CCOCC2)s1", "Potency": "inconclusive [inhibitor, single point]"}
{"smiles": "COc1cc(NC(=O)Cn2cc(S(=O)(=O)c3ccccc3)c(=O)c3ccccc32)cc(OC)c1", "Potency": "inconclusive [inhibitor, single point]"}
{"smiles": "CCSC(=Nc1ccccc1)Nc1ccccc1", "Potency": "inconclusive [inhibitor, partial curve]"}
{"smiles": "Cc1ccc(OCCN2CCC2(C)C(=O)NCc2cccc3ccccc23)cc1", "note": "(configuration not stated)", "Potency": "inconclusive [inhibitor, single point]"}
{"smiles": "CCOc1cc(C2c3c(-c4ccccc4O)n[nH]c3C(=O)N2CCc2ccccc2)ccc1O", "note": "(configuration not stated)", "Potency": "inconclusive [inhibitor, partial curve]"}
{"smiles": "O=C(O)c1ccc(/C=N/Nc2ncc(C(F)(F)F)cc2Cl)cc1", "Potency": "inactive"}
{"smiles": "COc1ccccc1-n1c(C)c(C(C)=O)c2cc(O)ccc21", "Potency": "inconclusive [inhibitor, single point]"}
{"smiles": "COc1ccccc1NC(=S)NNC(=O)c1ccc(Cl)cc1Cl", "Potency": "inconclusive [inhibitor, single point]"}
{"smiles": "C[C@H](CO)N1C[C@H](C)[C@H](CN(C)S(=O)(=O)c2cccc(F)c2)Oc2cc(Br)ccc2S1(=O)=O", "Potency": "active: 20.6 µM"}
